The whole screen tested about 350,000 compounds, of which about 9,900 (2.8%) were called active. Inconclusive means that the source gave no clear call. Such entries were picked first, then a sample of the others. Calls follow the shape of the dose curve; as a rule, active = well fitted activation curve with a large enough effect; inconclusive = small, poorly fitted or top-dose-only effect; inactive = no such curve, though single readings can be large or run the other way. No potency is given beside an inconclusive call; the fits are too rough.
Assay: A quantitative high throughput screen for small molecules that induce DNA re-replication in MCF 10a normal breast cells. Also: nearly all actives have a fitted effect of over 50% in size. As to activity, positive = re-replication: % of control where 0% means no effect.
Details: MCF 10A DNA re-replication, Hoechst nuclear intensity, 48 h; activity, positive = re-replication: at 46.1 µM (top of the series)
Potency is read from the fitted curve at half-maximal effect; tags tell the direction and shape of the fitted curve.

Row | Structure (SMILES) | Potency | activity, positive = re-replication
1 | CC(Sc1nc(=O)cc(N)n1CCc1ccccc1)C(=O)NCc1ccccc1 (stereo unspecified) | inconclusive [activator, partial curve, poor fit] | 
2 | COC(=O)c1ccc2c(c1)c(C#Cc1ccccc1)c(-c1ccccc1)n2C | inconclusive [activator, single point] | 
3 | O=C(NC(=S)Nc1ccc(Cc2ccncc2)cc1)c1ccccc1 | inconclusive [activator, single point] | 
4 | O=C(NCC1CCCO1)c1csc2c1CCCCC2 (stereo unspecified) | active: 2.59 µM | 
5 | COC(=O)C1=C(C)N(c2cccc(C(C)=O)c2)C(=O)C1 | inconclusive [activator, partial curve, poor fit] | 
6 | N#CC1(NC(=O)CN2C(=O)NC(c3ccccc3)(c3ccccc3)C2=O)CCCC1 |  | inactive: -3.62%
7 | CCOc1ccccc1N(CC(=O)NC(C)(C)C)C(=O)c1ccc(CN2CCOCC2)o1 | inconclusive [activator, partial curve, poor fit] | 
8 | O=C1c2ccccc2/C(=C\C#Cc2ccccn2)N1c1ccccc1 |  | inactive: 85.6%
9 | O=C(NN=C1CCN(Cc2ccccc2)CC1)c1cc2ccccc2cc1O |  | inactive: 0.433%
10 | C=CCn1c(COc2ccccc2F)nnc1SCC(=O)Nc1cc2oc3ccccc3c2cc1OC |  | inactive: 11.7%
11 | c1ccc(-n2c3ccccc3c3ccccc32)cc1 | inconclusive [activator, single point] | 
12 | CC(=O)C1=C(C)NC(SCC(N)=O)=C(C#N)C1c1ccco1 (stereo unspecified) |  | inactive: -0.577%
13 | Cc1cccc(-n2cnc(C(=O)Nc3cccnc3)c2)n1 | inconclusive [activator, full curve, poor fit] | 
14 | COc1ccc(CN(C)CC(=O)Nc2cccc(S(=O)(=O)N3CCCC3)c2)cc1F |  | inactive: 1.77%
15 | CCC(C(=O)Nc1cc(C)cc(C)n1)c1ccccc1 (stereo unspecified) | inconclusive [activator, full curve, poor fit] | 
16 | CN(Cc1nc(Cc2cccc(C(F)(F)F)c2)no1)C1CC(C)(C)NC(C)(C)C1 | inconclusive [activator, partial curve, poor fit] | 
17 | Oc1c(Cl)cc(Cl)c2cccnc12 | active: 6.68 µM | 
18 | CCNC(=S)N/N=C(\C)c1ccc2ccccc2c1OC(F)F |  | inactive: 1.4%
19 | O=C(NCc1ccccc1)C(=O)NCC1COc2ccccc2O1 (stereo unspecified) | active: 11.6 µM | 
20 | CC(=O)c1sc(Nc2nc3ccc(F)cc3s2)nc1C | inconclusive [activator, full curve, poor fit] | 
21 | Cc1ccc(N(C(=O)Cn2nnc(-c3ccccc3)n2)C(C(=O)NC2CCCCC2)c2ccccn2)cc1C (stereo unspecified) | inconclusive [activator, partial curve, poor fit] | 
22 | CCOc1ccc(-n2c(=O)c3sccc3n(Cc3ccc(C)cc3)c2=O)cc1 |  | inactive: -0.231%
23 | CC(C)CCSc1nc(N2CCOCC2)c2c(c1C#N)CC(C)(C)OC2 | inconclusive [activator, single point] | 
24 | O=C(CSc1nnc(SCc2ccccc2)s1)N/N=C/C=C/c1ccco1 | inconclusive [activator, full curve, poor fit] | 

Row | Structure (SMILES) | Potency | activity, positive = re-replication
25 | CCc1ccc(NC(=O)CN2CCCN(S(=O)(=O)c3ccc(F)cc3)CC2)cc1 | inconclusive [activator, partial curve, poor fit] | 
26 | CCOC(=O)N1CCC(N(C(=O)Nc2ccc(Cl)c(Cl)c2)C(C)CC)CC1 (stereo unspecified) | inconclusive [activator, single point] | 
27 | CC(NC(=O)/C(C#N)=C/c1ccc(Cl)c([N+](=O)[O-])c1)c1ccccc1 (stereo unspecified) | inconclusive [activator, full curve, poor fit] | 
28 | Cc1ccsc1C(=O)Nc1ccc(O)c(-c2nc3ccccc3s2)c1 | inconclusive [activator, partial curve, poor fit] | 
29 | CC(C)(C)OC(=O)C(Cc1ccc(OC(C)(C)C)cc1)NC(=O)CNC(=O)OCc1ccccc1 (stereo unspecified) | inconclusive [activator, single point] | 
30 | CC1(C)CC[C@]2(CO)CC[C@]3(C)C(=CCC4[C@@]5(C)CC[C@H](O)[C@@](C)(CO)C5CC[C@]43C)[C@@H]2C1 (stereo partly specified) | active: 10.3 µM | 
31 | O=C(CSc1nnc(Cc2cccs2)n1Cc1ccco1)Nc1cc(Cl)cc(Cl)c1 | inconclusive [activator, partial curve] | 
32 | COc1cc(C(=O)NCCC2=CCCCC2)ccc1OC1CCN(C(C)=O)CC1 |  | inactive: 20.9%
33 | O=C(O)c1ccc(Cl)c(NCc2cccs2)c1 | inconclusive [activator, partial curve, poor fit] | 
34 | Cc1ccc(-c2cc3onc(-c4ccccc4)c3c(=O)n2C)cc1 |  | inactive: -17.2%
35 | CC(NS(=O)(=O)c1ccccc1)C(c1cccs1)N1CCOCC1 (stereo unspecified) |  | inactive: -5.73%
36 | COc1cccc2cc(C(=O)NCCc3ccccc3)oc12 |  | inactive: -1.39%
37 | O=C1c2ccccc2-c2onc3ccc(Oc4ccccc4)c1c23 | inconclusive [activator, full curve] | 
38 | NC(=O)C1CCN(c2ccc(S(=O)(=O)N3CCC(Cc4ccccc4)CC3)cn2)CC1 | inconclusive [activator, single point] | 
39 | N#C/C(C(=O)NCc1ccccc1)=C1/SC(Cc2ccc(Cl)cc2)C(=O)N1c1ccccc1 (stereo unspecified) | inconclusive [activator, full curve, poor fit] | 
40 | CC1(C)CC(=O)C/C(=N/NC(=O)COc2ccc3ccccc3c2Br)C1 | inconclusive [activator, partial curve, poor fit] | 
41 | O=C1/C(=C/c2cccnc2)SC(=S)N1CCc1ccccc1 |  | inactive: 1.89%
42 | COc1ccc(N2C(=S)NC3N2C(=S)NC3(C)c2ccccc2)cc1 (stereo unspecified) | inconclusive [activator, partial curve, poor fit] | 
43 | CC(=O)Nc1ccc(S(=O)(=O)N[C@@H](C)C(=O)OCC(=O)Nc2ccc3c(c2)OCCO3)cc1 |  | inactive: 12.8%
44 | O=C1C=C(c2ccc3c(c2)oc2ccccc23)C[C@@H](c2ccc(Cl)cc2)C1 |  | inactive: -2.91%
45 | CN1CCN(C(c2ccc(Br)cc2)c2cc(Cl)c3cccnc3c2O)CC1 (stereo unspecified) | inconclusive [activator, single point] | 
46 | O=C(O)CC1c2ccccc2CCN1S(=O)(=O)c1cccs1 (stereo unspecified) |  | inactive: 0%
47 | COc1ccccc1/C=C/CN1CCCC(CO)(CCc2ccccc2)C1 (stereo unspecified) |  | inactive: 5.03%
48 | Cc1ccc(S(=O)(=O)N(C)c2ccc(OC(C)C(=O)N(C)c3ccccc3)cc2)cc1 (stereo unspecified) | inconclusive [activator, partial curve, poor fit] | 

Row | Structure (SMILES) | Potency | activity, positive = re-replication
49 | COc1ccc(/C=C/c2nnc(NC(=O)COc3ccccc3)s2)cc1 | inconclusive [activator, partial curve, poor fit] | 
50 | Cc1nnc(N/N=C/c2ccccn2)[nH]c1=O | active: 2.59 µM | 
51 | O=C(Nc1ccccn1)c1ccc(Cl)c(S(=O)(=O)N2CCc3ccccc32)c1 |  | inactive: 20.1%
52 | CCOC(=S)SCC(=O)Nc1ncc(C)s1 | inconclusive [activator, single point] | 
53 | CSc1ccccc1NC(=O)Nc1cccc(F)c1 | inconclusive [activator, single point] | 
54 | Fc1ccc(N2CCN(Cc3cnc(Oc4ccc(Br)cc4)s3)CC2)cc1 | inconclusive [activator, single point] | 
55 | Cc1cc([N+](=O)[O-])ccc1NCc1ccccc1 | inconclusive [activator, single point] | 
56 | Cc1c(CCOC(=O)C23CC4CC(CC(C)(C4)C2)C3)sc[n+]1CC(=O)c1ccccc1 | inconclusive [activator, single point] | 
57 | COc1cccc(C2=CC(c3cccc(OC)c3OC(F)F)n3nnnc3N2)c1 (stereo unspecified) | inconclusive [activator, partial curve, poor fit] | 
58 | COc1ccc(C(C[N+](=O)[O-])C2(c3ccc(OC)c(OC)c3)C(=O)c3ccccc3C2=O)cc1 (stereo unspecified) | inconclusive [activator, full curve] | 
59 | CCOC(=O)N1CCC(NC(=O)c2sc(-n3cccc3)nc2C)CC1 |  | inactive: 1.8%
60 | COCC(C)NC(=O)c1noc2c1CCc1cc(OC)ccc1-2 (stereo unspecified) | inconclusive [activator, partial curve, poor fit] | 
61 | CS(=O)(=O)N(CC(=O)NC1CC1)C1CCCCC1 | inconclusive [activator, partial curve, poor fit] | 
62 | C/C(=N\NC(=O)c1ccn(C)n1)c1ccc(NC(=O)c2cccc(F)c2)cc1 | inconclusive [activator, single point] | 
63 | COc1ccc(S(=O)(=O)N2CCN(Cc3cc(=O)n4ccccc4n3)CC2)cc1 |  | inactive: -5.79%
64 | Cc1ccnc(SCc2cc(=O)c(OC(=O)c3ccco3)co2)n1 |  | inactive: -4.47%
65 | COc1ccc(CCNCC(=O)N2C(C)CCCC2C)cc1OC (stereo unspecified) |  | inactive: -1.57%
66 | CN1CCN(C2=C(Cl)C(=O)c3ccccc3C2=O)CC1 | active: 4.11 µM | 
67 | CC1CN(Cc2cn(C)nc2-c2ccc(Oc3ccccc3)cc2)CCN1C (stereo unspecified) | inconclusive [activator, single point] | 
68 | Cc1cccc(/C=C/C(=O)c2cc(Br)ccc(=O)c2O)c1 | active: 10.3 µM | 
69 | CCOc1ccccc1C(=O)Nc1cc(C(=O)NCCc2ccccc2)ccc1Cl |  | inactive: 0.0039%
70 | COc1ccc(CNc2oc(COc3ccc(Cl)cc3)nc2C#N)cc1 | inconclusive [activator, single point] | 
71 | O=C(N/N=C/C(Cl)=C/c1ccc([N+](=O)[O-])cc1)C(=O)Nc1cccc(C(=O)O)c1 | inconclusive [activator, single point] | 

Reference: PubChem BioAssay AID624296 (National Center for Advancing Translational Sciences (NCATS), 2012)
